Experimental data reported in the supplement of paper PMC12355420.
Where “and” joins values, the source holds several entries; their conditions need not be identical. Equal entries are not always repeated. Structures can show the parent of a compound that is named as a salt. The list shows a part of the results. Repeats are few or missing, and single values can be far off.

tested on: HeLa VPS33A reporter cells; assay: relative cell viability (CellMask signal) vs DMSO (fraction of DMSO); HeLa model of a glycosaminoglycan (GAG) storage disease; KI is knock-in and KO knock-out; SDC1 is syndecan 1; higher = less cytotoxic; settings: 50 µM; 24 h
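Note: primary screen of an FDA-approved drug library in HeLa reporter cells in 96-well format, CellMask signal normalized to DMSO-treated wells set as 1, under 0.5 deemed highly cytotoxic.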

SMILES | relative cell viability
CC1=C(C(=O)O)N2C(=O)[C@@H](NC(=O)[C@H](N)c3ccc(O)cc3)[C@H]2SC1 [Cefadroxil (hydrate)] | 1.01
O=C(Nc1cnn2ccc(N3CCC[C@@H]3c3cc(F)ccc3F)nc12)N1CC[C@H](O)C1 | 0.98
COC(=O)N(C)c1c(N)nc(-c2nn(Cc3ccccc3F)c3ncccc23)nc1N [Riociguat] | 1.01
Cc1ncc([N+](=O)[O-])n1CCO [Metronidazole] | 0.951
COc1c(N2C[C@@H]3CCCN[C@@H]3C2)c(F)cc2c(=O)c(C(=O)O)cn(C3CC3)c12 [Moxifloxacin HCl] | 0.993
CC(C)[N+]1(C)[C@@H]2CC[C@H]1C[C@@H](OC(=O)C(CO)c1ccccc1)C2 (stereo partly specified) [Ipratropium Bromide] | 0.997
CC(C)(C)NC[C@H](O)COc1nsnc1N1CCOCC1 [Timolol Maleate] | 1.15
O=C1CN(/N=C/c2ccc(-c3ccc([N+](=O)[O-])cc3)o2)C(=O)N1 [Dantrolene, sodium salt] | 1.15
O=S(=O)(O)CCS [Mesna] | 1.05
CC(C)(O/N=C(\C(=O)N[C@@H]1C(=O)N2C(C(=O)[O-])=C(C[n+]3ccccc3)CS[C@H]12)c1csc(N)n1)C(=O)O [Ceftazidime] | 0.946 and 1.09
Cc1occc(=O)c1O [3-Hydroxy-2-methyl-4H-pyran-4-one] | 1
O=S(=O)(O)c1cc(O)ccc1O [Ethamsylate] | 0.811
Cc1cc(/C=C/C#N)cc(C)c1Nc1ccnc(Nc2ccc(C#N)cc2)n1 [Rilpivirine] | 1.19
O=C1C(=O)c2ccccc2C(O)=C1C1CCC(c2ccc(Cl)cc2)CC1 (stereo unspecified) [Atovaquone] | 1.01
Cc1ccc(C(=O)c2cc(O)c(O)c([N+](=O)[O-])c2)cc1 [Tolcapone] | 0.731
Cc1nnc(SCC2=C(C(=O)O)N3C(=O)[C@@H](NC(=O)Cn4cnnn4)[C@H]3SC2)s1 [Cefazolin (sodium salt)] | 1.01

SMILES | relative cell viability
CN[C@@H]1[C@H](O)[C@H](NC)[C@H]2O[C@@]3(O)C(=O)C[C@@H](C)O[C@H]3O[C@@H]2[C@H]1O [Spectinomycin dihydrochloride] | 1.04
Cc1cc(=O)oc2cc(O)ccc12 [4-Methylumbelliferone (4-MU)] | 1.07
CC12CC3CC(C)(C1)CC(N)(C3)C2 [Memantine hydrochloride] | 1.03
O=C1Nc2ccc(Cl)cc2[C@@](C#CC2CC2)(C(F)(F)F)O1 [Efavirenz] | 0.565
COc1ccc(/C=C\c2cc(OC)c(OC)c(OC)c2)cc1OP(=O)(O)O [Fosbretabulin (Combretastatin A4 Phosphate (CA4P)) Disodium] | 0.567
C#C[C@]1(O)CC[C@H]2[C@@H]3CCc4cc(OC5CCCC5)ccc4[C@H]3CC[C@@]21C [Quinestrol] | 0.915
OC[C@H]1O[C@H](O[C@]2(CCl)O[C@H](CCl)[C@@H](O)[C@@H]2O)[C@H](O)[C@@H](O)[C@H]1Cl [Sucralose] | 1.25
C[C@H](Cc1cc2c(c(C(N)=O)c1)N(CCCO)CC2)NCCOc1ccccc1OCC(F)(F)F [Silodosin] | 1.14
CCCNC(=O)NS(=O)(=O)c1ccc(Cl)cc1 [Chlorpropamide] | 1.06
Nc1c(CC(=O)O)cccc1C(=O)c1ccccc1 [Amfenac Sodium Monohydrate] | 1.15
CCCC(=O)OCOC(=O)C1=C(C)NC(C)=C(C(=O)OC)C1c1cccc(Cl)c1Cl (stereo unspecified) [Clevidipine Butyrate] | 1.19
CNS(=O)(=O)Cc1ccc2[nH]cc(CCN(C)C)c2c1 [Sumatriptan Succinate] | 0.969
CCCN[C@H]1CCc2nc(N)sc2C1 [Pramipexole dihydrochloride] | 0.997
CC(=O)Nc1ccccc1 [Acetanilide] | 0.958
Cc1nnc(NS(=O)(=O)c2ccc(N)cc2)s1 [Sulfamethizole] | 1.17
